From PubChem BioAssay AID1508623 (National Center for Advancing Translational Sciences (NCATS), 2021) come the findings set out here.

Structures are written as SMILES. Hit rate of the full screen: of about 48,000 compounds, about 450 (0.94%) were called active. Inconclusive results (about 19%) are left out. Calls come from the whole dose curve; as a rule, active = well fitted inhibition curve with a large enough effect; inconclusive = small, poorly fitted or top-dose-only effect; inactive = no such curve, though single readings can be large or run the other way. The list shows a part of the results.

A short description of this experiment: Primary qHTS for Identification of Small Molecule Inhibitors of Huntingtin Promoter Activity. Note: nearly all actives have a fitted effect of over 50% in size. As to conditions: HEK293 HTT promoter firefly luciferase reporter (activity 0% = vehicle and -100% = no light), 24 h; series mostly up to 57.5 µM; activity change, negative = inhibition: at the top concentration. In a few lines: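 HEK293 cells carrying firefly luciferase reporters were seeded at 2,500 per well in Opti-MEM and cultured for 24 h. They were then treated with compounds at up to 57.5 uM final for 24 h at 37 degrees C before Dual-Glo luminescence readout.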
For orientation: In qHTS, concentration-response curves come from the screen itself.
`Cc1cccc(NC(=O)CS(=O)(=O)c2cccc3nsnc23)c1`: the “activity change, negative = inhibition” value was inactive: -7.28%. For `Cc1ccc(CCNC(=O)c2c3c(nc4ccccc24)C(=O)N(C2CCCCC2)C3)cc1` the value was inactive: -10.3%.

As to `Cc1cccc(NC(=O)COc2ccc(-c3nn(C)c(=O)c4ccccc34)cc2)c1`, the “activity change, negative = inhibition” value was inactive: -30.3%. Under `COC(=O)c1ccccc1NC(=O)CSc1nc(=O)cc(N)n1-c1ccccc1` stands inactive: -15.5%; under `Cc1ccc(NC(=O)Cn2c(=O)n(Cc3nc(-c4ccccc4)no3)c(=O)c3ccccc32)cc1C`, inactive: -22.8%; under `Cc1ccc(CNC(=O)c2c(-c3ccccc3Cl)noc2C)o1`, inactive: -9.66%.

For the molecule `Cc1coc2cc3oc(=O)c(CC(=O)NCc4cccc(Cl)c4)c(C)c3cc12`, the “activity change, negative = inhibition” value was inactive: -25.3%. For `COc1cc(OC)c(NC(=O)CN2CCCN(Cc3ccccc3C)S2(=O)=O)cc1Cl` the value was inactive: 0%; for `CN1CC(=O)NC1=N`, inactive: 14.1%. `COc1cccc(Cn2c(=O)n(CCc3ccccc3)c(=O)c3c2c2cc(OC)ccc2n3C)c1`: the “activity change, negative = inhibition” value is inactive: -1.01%. Under `Cc1ccc(Cl)cc1NC(=O)C1CCN(S(=O)(=O)c2cccc3nonc23)CC1` stands inactive: -11.4%; under `COc1ccc(NC(=O)c2c(NC(=O)c3ccncc3)sc3c2CCC(C(C)(C)C)C3)cc1` (centres undefined), inactive: -29.4%. Regarding `COc1cc(NC(=O)C(Cc2ccccc2)NS(=O)(=O)c2cccc3nsnc23)cc(OC)c1` (centres undefined), the “activity change, negative = inhibition” value is inactive: -28.9%.

For `Cc1cccc(NC(=O)CSc2nc3ccccc3nc2N2CCCCC2)c1C`, the “activity change, negative = inhibition” value was inactive: -9.18%. Under `CC(=O)SC[C@@H](Cc1ccccc1)C(=O)NCC(=O)OCc1ccccc1` stands inactive: 3.69%; under `O=C(Cn1ccn(-c2ccc(F)c(F)c2)c(=O)c1=O)NCCc1ccccc1`, inactive: -15.8%. Under `CC(=O)c1cccc(NC(=O)CCc2c(C)nc3c(c(C)nn3-c3ccccc3)c2C)c1` stands inactive: -23.9%; under `Cc1cc(C)cc(NC(=O)c2cc(S(=O)(=O)N3CCC(C)CC3)cn2C)c1`, inactive: -20.4%; under `CCCCNc1nc(Oc2ccc(=O)n(C)n2)nc(N2CCOCC2)n1`, inactive: 28.5%. For `CCn1c(-c2nonc2N)nc2cncc(CNC3CCNCC3)c21` the value was inactive: -3.91%; for `Cc1cc(C)c2c(=O)cc(C(=O)Nc3c(C)n(C)n(-c4ccccc4)c3=O)oc2c1`, inactive: -5.46% [at 11.5 µM]; for `O=C(CCC1N=C2c3ccccc3N=C(SCc3cccc(Cl)c3)N2C1=O)N1CCN(c2ccccc2)CC1` (centres undefined), inactive: -13.7%. In the case of `CCOc1ccc(-c2cc3c(=O)n(CC(=O)Nc4cc(F)ccc4C)ccn3n2)cc1`, the “activity change, negative = inhibition” value is inactive: 37%.

As to `COc1ccc(C(=O)c2c(N)c(-c3nc(-c4ccc(OC)cc4)cs3)c3ccccn23)cc1`, the “activity change, negative = inhibition” value is inactive: -7.99%. For `COc1cc2[nH]c(=O)n(CCC(=O)N3CCN(c4ccc(Cl)cc4)CC3)c(=O)c2cc1OC` the value was inactive: 0.394%. For `CCn1nc(-c2ccccc2)c(-c2ccccc2)c(C(=O)Nc2ccccc2C#N)c1=O` the value was inactive: -11.9%. Under `Cc1cc(C)c(/C=C/c2onc(C)c2S(=O)(=O)N2CCC(C(=O)NCc3ccccc3Cl)CC2)c(C)c1` stands inactive: -13.4%; under `COc1ccc(S(=O)(=O)c2c(O)c3ccc(C(=O)NCc4ccc(Cl)cc4)cc3[nH]c2=O)cc1`, inactive: -2.41%; under `Cc1csc2nc(COc3ccc(NC(=O)COc4ccccc4)cc3)cc(=O)n12`, inactive: 4.74%. Consider `CCN(Cc1ccccc1)C(=O)Cn1c(=O)n(-c2cccc(C)c2)c(=O)c2c1c1cc(C)ccc1n2C`, for which the “activity change, negative = inhibition” value is inactive: -18.3%. For `CC(=O)N(O)CCCCCNC(=O)CCC(=O)N(O)CCCCCNC(=O)CCC(=O)N(O)CCCCCN` the value was inactive: -21.8%.

As for `Cc1ccc2oc3c(c(=O)c2c1)C(c1ccc([N+](=O)[O-])cc1)N(CCCN1CCOCC1)C3=O` (centres undefined), the “activity change, negative = inhibition” value was inactive: -6.76%. Under `C=CCc1ccccc1OCc1nc2ccccc2n1CC` stands inactive: -31.7%. Regarding `O=C(O)Cc1cccc(-c2cc(CCCCCCc3ccc(O[C@H]4O[C@H](CO)[C@@H](O)[C@H](O)[C@@H]4O)c(-c4cccc(CC(=O)O)c4)c3)ccc2O[C@H]2O[C@H](CO)[C@@H](O)[C@H](O)[C@@H]2O)c1`, the activity change, negative = inhibition is inactive: 9.75% [at 0.739 µM]. Under `O=C(CN1C(=O)c2cccnc2Oc2ccc(Cl)cc21)NCCc1ccccc1` stands inactive: 14.7%; under `CC(C)(C)C(=O)Cn1c(=O)n(-c2ccccc2)c(=O)c2c3c(sc21)CCC3`, inactive: -6.12%; under `Cc1ccc(NC(=O)CN2C(=O)COc3ccc(S(=O)(=O)NC4CCCC4)cc32)cc1Cl`, inactive: -24.8%. Regarding `CCCCNc1ccc(-c2nc(-c3ccco3)no2)cc1[N+](=O)[O-]`, the “activity change, negative = inhibition” value is inactive: 46.6%. Consider `CCOc1ccc(C(=O)Nc2cccc(NC(=O)c3ccc(C(C)(C)C)cc3)c2)cc1Br`, for which the “activity change, negative = inhibition” value is inactive: 8.25%. Under `Cc1cccc(N2CCN(S(=O)(=O)c3cc(Cl)ccc3Cl)CC2)c1C` stands inactive: -0.445%; under `Cn1c2ccccc2c2cnn(CC(=O)N3CCN(c4cccc(C(F)(F)F)c4)CC3)c(=O)c21`, inactive: 3.74%; under `COc1ccc(-c2nc(SCC(=O)Nc3ccc4c(c3)OCCO4)c(-c3ccc(F)cc3)[nH]2)cc1OC`, inactive: -16.4%. For `COc1ccc(CC(=O)NCc2ccc3c(c2)CCN3C(C)=O)cc1` the value was inactive: -5.14%.

For `Cc1ccc(-c2ccccc2C#N)cc1`, the “activity change, negative = inhibition” value is inactive: 5.19%. With `CC1=C(C(N)=O)C(c2ccc(F)cc2)n2nc(-c3ccccc3Cl)nc2N1` (centres undefined), the “activity change, negative = inhibition” value is inactive: -15.1%.

As to `Cc1ccc(NC(=O)CCCn2c(=O)c3cccn3c3ccccc32)cc1C`, the “activity change, negative = inhibition” value is inactive: -15.3%. Under `CC(C)CC(=O)n1nc(-c2cccnc2)nc1NCc1ccc(F)cc1` stands inactive: -37.9%; under `COCCCNC(=O)c1ccc(-n2c(-c3ccccc3)cc3c2CCCC3)cc1`, inactive: 15.6%. Take `O=C(OCc1cc(=O)n2nc(C3CCCCC3)sc2n1)c1ccccc1Cl`: the “activity change, negative = inhibition” value is inactive: -1.13%.

Take `COc1cccc(-c2nnc(SCC(=O)N3CCC(C)CC3)o2)c1`: the “activity change, negative = inhibition” value was inactive: 3.44%. Under `Cc1cc(C)n(-c2nc3ccccc3nc2Nc2ccc(Cl)c(C(=O)OC(C)C)c2)n1` stands inactive: 12%; under `COc1ccc(OCC(=O)OCc2cc(=O)n3nc(-c4cccs4)sc3n2)cc1`, inactive: 11.2%; under `OC[C@H]1O[C@@H]2O[C@H]3[C@H](O)[C@@H](O)[C@@H](O[C@H]4[C@H](O)[C@@H](O)[C@@H](O[C@H]5[C@H](O)[C@@H](O)[C@@H](O[C@H]6[C@H](O)[C@@H](O)[C@@H](O[C@H]7[C@H](O)[C@@H](O)[C@@H](O[C@H]8[C@H](O)[C@@H](O)[C@@H](O[C@H]1[C@H](O)[C@H]2O)O[C@@H]8CO)O[C@@H]7CO)O[C@@H]6CO)O[C@@H]5CO)O[C@@H]4CO)O[C@@H]3CO`, inactive: 6.92%.

As to `Cc1ccc(Cl)cc1NC(=O)Cn1c(=O)n(Cc2ccccc2)c(=O)c2oc3ccccc3c21`, the “activity change, negative = inhibition” value was inactive: -9.86%.
